Patent US20250361279A1 (Hoffmann-La Roche, published 2025)
Like-named read-outs stand apart in the source and are kept apart here.

Legend:
[1] = target: T1, IL-7 receptor (IL-7R alpha chain and common gamma chain) on human T cells (human, UniProt P16871 21-459; P31785 23-369); test: flow cytometry, fresh PBMCs, naive (TCF-1+ PD-1-) CD4 T cells; set-up: unit not given beside the values
T1 construct: whole, on cells; Endogenous receptor on CD4 and CD8 T cells of healthy donors; also called IL-7Rα; CD127
T1 sequence (looked up) 1: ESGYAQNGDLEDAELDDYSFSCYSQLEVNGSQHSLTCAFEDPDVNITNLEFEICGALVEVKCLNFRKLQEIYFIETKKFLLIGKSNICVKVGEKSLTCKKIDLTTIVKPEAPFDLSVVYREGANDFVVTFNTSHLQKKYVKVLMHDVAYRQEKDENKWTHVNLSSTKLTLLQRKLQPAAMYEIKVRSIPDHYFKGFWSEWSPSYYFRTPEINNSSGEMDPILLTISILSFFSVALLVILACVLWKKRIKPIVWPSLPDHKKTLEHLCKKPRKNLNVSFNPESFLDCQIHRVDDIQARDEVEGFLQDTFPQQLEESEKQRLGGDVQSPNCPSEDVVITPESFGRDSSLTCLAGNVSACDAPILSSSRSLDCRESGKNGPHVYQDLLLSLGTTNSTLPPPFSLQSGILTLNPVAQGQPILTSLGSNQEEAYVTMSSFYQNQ
T1 sequence (looked up) 2: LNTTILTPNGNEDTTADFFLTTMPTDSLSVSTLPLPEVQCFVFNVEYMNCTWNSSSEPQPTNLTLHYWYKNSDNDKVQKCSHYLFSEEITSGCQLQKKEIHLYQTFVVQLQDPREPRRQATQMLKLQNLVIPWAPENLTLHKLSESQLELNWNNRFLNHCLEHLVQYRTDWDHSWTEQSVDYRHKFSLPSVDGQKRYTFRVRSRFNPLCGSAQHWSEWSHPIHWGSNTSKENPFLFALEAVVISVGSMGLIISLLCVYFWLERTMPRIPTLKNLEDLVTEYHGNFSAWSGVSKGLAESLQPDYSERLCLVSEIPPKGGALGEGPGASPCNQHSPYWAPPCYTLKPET

[2] = target: T1, IL-7 receptor (IL-7R alpha chain and …); test: flow cytometry, fresh PBMCs, naive (TCF-1+ PD-1-) CD8 T cells
[3] = target: T1, IL-7 receptor (IL-7R alpha chain and …); test: cell-based or functional assay
[4] = target: T2, human PD-1 on activated CD4 T cells (human, UniProt Q15116 25-288); test: cell-based or functional assay
[5] = target: T1, IL-7 receptor (IL-7R alpha chain and …); test: flow cytometry, fresh PBMCs, bystander (PD-1- TCF-1-) CD8 T cells; set-up: unit not given beside the values
[6] = target: T1, IL-7 receptor (IL-7R alpha chain and …); test: flow cytometry, fresh PBMCs, bystander (PD-1- TCF-1-) CD4 T cells
[7] = target: T1, IL-7 receptor (IL-7R alpha chain and …); test: flow cytometry, fresh PBMCs, naive (TCF-1+ PD-1-) CD4 T cells
[8] = target: T1, IL-7 receptor (IL-7R alpha chain and …); test: flow cytometry, fresh PBMCs, bystander (PD-1- TCF-1-) CD8 T cells
[9] = target: T1, IL-7 receptor (IL-7R alpha chain and …); test: cell-based or functional assay; remark: listed apart in the source
[10] = target: T2, human PD-1 on activated CD4 T cells; test: cell-based or functional assay; remark: listed apart in the source
[11] = target: T1, IL-7 receptor (IL-7R alpha chain and …); test: flow cytometry, fresh PBMCs, bystander (PD-1- TCF-1-) CD4 T cells; set-up: unit not given beside the values
[12] = target: T1, IL-7 receptor (IL-7R alpha chain and …); test: cell-based or functional assay; remark: listed apart in the source
[13] = target: T2, human PD-1 on activated CD4 T cells; test: cell-based or functional assay; remark: listed apart in the source
[14] = target: T1, IL-7 receptor (IL-7R alpha chain and …); test: cell-based or functional assay; remark: listed apart in the source
[15] = target: T2, human PD-1 on activated CD4 T cells; test: cell-based or functional assay; remark: listed apart in the source
[16] = target: T1, IL-7 receptor (IL-7R alpha chain and …); test: cell-based or functional assay; remark: listed apart in the source
[17] = target: T2, human PD-1 on activated CD4 T cells; test: cell-based or functional assay; remark: listed apart in the source
[18] = target: T1, IL-7 receptor (IL-7R alpha chain and …); test: cell-based or functional assay; remark: listed apart in the source
[19] = target: T1, IL-7 receptor (IL-7R alpha chain and …); test: flow cytometry, fresh PBMCs, naive (TCF-1+ PD-1-) CD8 T cells; set-up: unit not given beside the values
[20] = target: T1, IL-7 receptor (IL-7R alpha chain and …); test: cell-based or functional assay; remark: listed apart in the source

B1: P1AH4515 (PD1-IL7wt, fully glycosylated) (other)
light: DIVMTQSPDSLAVSLGERATINCKASESVDTSDNSFIHWYQQKPGQSPKLLIYRSSTLESGVPDRFSGSGSGTDFTLTISSLQAEDVAVYYCQQNYDVPWTFGQGTKVEIKRTVAAPSVFIFPPSDEQLKSGTASVVCLLNNFYPREAKVQWKVDNALQSGNSQESVTEQDSKDSTYSLSSTLTLSKADYEKHKVYACEVTHQGLSSPVTKSFNRGEC
heavy 1: EVQLLESGGGLVQPGGSLRLSCAASGFSFSSYTMSWVRQAPGKGLEWVATISGGGRDIYYPDSVKGRFTISRDNSKNTLYLQMNSLRAEDTAVYYCVLLTGRVYFALDSWGQGTLVTVSSASTKGPSVFPLAPSSKSTSGGTAALGCLVKDYFPEPVTVSWNSGALTSGVHTFPAVLQSSGLYSLSSVVTVPSSSLGTQTYICNVNHKPSNTKVDKKVEPKSCDKTHTCPPCPAPEAAGGPSVFLFPPKPKDTLMISRTPEVTCVVVDVSHEDPEVKFNWYVDGVEVHNAKTKPREEQYNSTYRVVSVLTVLHQDWLNGKEYKCKVSNKALGAPIEKTISKAKGQPREPQVCTLPPSRDELTKNQVSLSCAVKGFYPSDIAVEWESNGQPENNYKTTPPVLDSDGSFFLVSKLTVDKSRWQQGNVFSCSVMHEALHNHYTQKSLSLSPG
heavy 2: EVQLLESGGGLVQPGGSLRLSCAASGFSFSSYTMSWVRQAPGKGLEWVATISGGGRDIYYPDSVKGRFTISRDNSKNTLYLQMNSLRAEDTAVYYCVLLTGRVYFALDSWGQGTLVTVSSASTKGPSVFPLAPSSKSTSGGTAALGCLVKDYFPEPVTVSWNSGALTSGVHTFPAVLQSSGLYSLSSVVTVPSSSLGTQTYICNVNHKPSNTKVDKKV[sequence of human IgG1 Fc with changes omitted]GGSGGGGSGGGGSGGDCDIEGKDGKQYESVLMVSIDQLLDSMKEIGSNCLNNEFNFFKRHICDANKEGMFLFRAARKLRQFLKMNSTGDFDLHLLKVSEGTTILLNCTGQVKGRKPAALGEAQPTKSLEENKSLKEQKKLNDLCFLKRLLQEIKTCWNKILMGTKEH
notes: Immunoconjugate: anti-PD-1 IgG1 (FV000363), knob-into-hole, PGLALA; human IL-7 wild-type fused to the C-terminus of the knob heavy chain; also called P1AH4515-005; P1AH4515-007
[1]
  AUC of dose-response binding (frequency of anti-PGLALA+ cells): 253
[2]
  fold reduction in binding compared to P1AF7303: 1.53 fold
[3]
  Potency reduction to PD1-IL7wt: EC50 (PD1+)/EC50 (PD1-IL7wt): 1 fold
  STAT-5P AUC, PD1+ CD4 T cells: 157
  STAT-5P AUC, PD1-blocked CD4 T cells: 125
[4]
  Cis-delivery: fold increase in EC50, EC50 [with PD1bl]/EC50 [no PD1bl]: 1.5 fold
  Delta AUC (PD1+ vs PD1bl.): 32
[5]
  AUC of dose-response binding (frequency of anti-PGLALA+ cells): 191
[6]
  fold reduction in binding compared to P1AF7303: 1.79 fold
[7]
  fold reduction in binding compared to P1AF7303: 1.52 fold
[8]
  fold reduction in binding compared to P1AF7303: 1.29 fold
[9]
  Potency reduction to PD1-IL7wt: EC50 (PD1+)/EC50 (PD1-IL7wt): 1 fold
[10]
  Cis-delivery: fold increase in EC50, EC50 [with PD1bl]/EC50 [no PD1bl]: 2 fold
[11]
  AUC of dose-response binding (frequency of anti-PGLALA+ cells): 162
[12]
  Potency reduction to PD1-IL7wt: EC50 (PD1+)/EC50 (PD1-IL7wt): 1 fold
  STAT-5P AUC, PD1+ CD4 T cells: 139
  STAT-5P AUC, PD1-blocked CD4 T cells: 110
[13]
  Cis-delivery: fold increase in EC50, EC50 [with PD1bl]/EC50 [no PD1bl]: 2.4 fold
  Delta AUC (PD1+ vs PD1bl.): 29
[14]
  Potency reduction to PD1-IL7wt: EC50 (PD1+)/EC50 (PD1-IL7wt): 1 fold
  STAT-5P AUC, PD1+ CD4 T cells: 141
  STAT-5P AUC, PD1-blocked CD4 T cells: 109
[15]
  Cis-delivery: fold increase in EC50, EC50 [with PD1bl]/EC50 [no PD1bl]: 4.2 fold
  Delta AUC (PD1+ vs PD1bl.): 32.2
[16]
  Potency reduction to PD1-IL7wt: EC50 (PD1+)/EC50 (PD1-IL7wt): 1 fold
  STAT-5P AUC, PD1+ CD4 T cells: 173
  STAT-5P AUC, PD1-blocked CD4 T cells: 143
[17]
  Cis-delivery: fold increase in EC50, EC50 [with PD1bl]/EC50 [no PD1bl]: 1.3 fold
  Delta AUC (PD1+ vs PD1bl.): 30.5
[18]
  Percentage of rescued Granzyme B production by Tconv (Treg suppression assay, 6 nM): 238%
  Percentage of suppressed Granzyme B production by Tconv (Treg suppression assay, 6 nM): -138%
[19]
  AUC of dose-response binding (frequency of anti-PGLALA+ cells): 259
[20]
  EC50[active]/EC50 [active PD1-IL7wt]: 1 fold
  EC50[fresh]/EC50 [fresh PD1-IL7wt]: 1 fold

B2: P1AF7303 (Control: FAP (4B9) IgG kh PGLALA huIL7wt; 3G4S linker) (other)
light: EIVLTQSPGTLSLSPGERATLSCRASQSVTSSYLAWYQQKPGQAPRLLINVGSRRATGIPDRFSGSGSGTDFTLTISRLEPEDFAVYYCQQGIMLPPTFGQGTKVEIKRTVAAPSVFIFPPSDEQLKSGTASVVCLLNNFYPREAKVQWKVDNALQSGNSQESVTEQDSKDSTYSLSSTLTLSKADYEKHKVYACEVTHQGLSSPVTKSFNRGEC
heavy 1: EVQLLESGGGLVQPGGSLRLSCAASGFTFSSYAMSWVRQAPGKGLEWVSAIIGSGASTYYADSVKGRFTISRDNSKNTLYLQMNSLRAEDTAVYYCAKGWFGGFNYWGQGTLVTVSSASTKGPSVFPLAPSSKSTSGGTAALGCLVKDYFPEPVTVSWNSGALTSGVHTFPAVLQSSGLYSLSSVVTVPSSSLGTQTYICNVNHKPSNTKVDKKVEPKSCDKTHTCPPCPAPEAAGGPSVFLFPPKPKDTLMISRTPEVTCVVVDVSHEDPEVKFNWYVDGVEVHNAKTKPREEQYNSTYRVVSVLTVLHQDWLNGKEYKCKVSNKALGAPIEKTISKAKGQPREPQVCTLPPSRDELTKNQVSLSCAVKGFYPSDIAVEWESNGQPENNYKTTPPVLDSDGSFFLVSKLTVDKSRWQQGNVFSCSVMHEALHNHYTQKSLSLSPGK
heavy 2: EVQLLESGGGLVQPGGSLRLSCAASGFTFSSYAMSWVRQAPGKGLEWVSAIIGSGASTYYADSVKGRFTISRDNSKNTLYLQMNSLRAEDTAVYYCAKGWFGGFNYWGQGTLVTVSSASTKGPSVFPLAPSSKSTSGGTAALGCLVKDYFPEPVTVSWNSGALTSGVHTFPAVLQSSGLYSLSSVVTVPSSSLGTQTYICNVNHKPSNTKVDKKV[sequence of human IgG1 Fc with changes omitted]GGGGSGGGGSGGGGSDCDIEGKDGKQYESVLMVSIDQLLDSMKEIGSNCLNNEFNFFKRHICDANKEGMFLFRAARKLRQFLKMNSTGDFDLHLLKVSEGTTILLNCTGQVKGRKPAALGEAQPTKSLEENKSLKEQKKLNDLCFLKRLLQEIKTCWNKILMGTKEH
notes: Untargeted control: anti-FAP IgG1 knob-into-hole PGLALA with human IL-7 wild-type on the knob heavy chain; also called FAP-IL7 wt; FAP-IL7wt
[1]
  AUC of dose-response binding (frequency of anti-PGLALA+ cells): 385
[2]
  fold reduction in binding compared to P1AF7303: 1 fold
[5]
  AUC of dose-response binding (frequency of anti-PGLALA+ cells): 248
[6]
  fold reduction in binding compared to P1AF7303: 1 fold
[7]
  fold reduction in binding compared to P1AF7303: 1 fold
[8]
  fold reduction in binding compared to P1AF7303: 1 fold
[9]
  Potency reduction to PD1-IL7wt: EC50 (PD1+)/EC50 (PD1-IL7wt): 1 fold
[10]
  Cis-delivery: fold increase in EC50, EC50 [with PD1bl]/EC50 [no PD1bl]: 1 fold
[11]
  AUC of dose-response binding (frequency of anti-PGLALA+ cells): 290
[12]
  Potency reduction to PD1-IL7wt: EC50 (PD1+)/EC50 (PD1-IL7wt): 0.6 fold
  STAT-5P AUC, PD1+ CD4 T cells: 117
  STAT-5P AUC, PD1-blocked CD4 T cells: 110
[13]
  Cis-delivery: fold increase in EC50, EC50 [with PD1bl]/EC50 [no PD1bl]: 0.9 fold
  Delta AUC (PD1+ vs PD1bl.): 7.3
[14]
  Potency reduction to PD1-IL7wt: EC50 (PD1+)/EC50 (PD1-IL7wt): 9.4 fold
  STAT-5P AUC, PD1+ CD4 T cells: 103
  STAT-5P AUC, PD1-blocked CD4 T cells: 99.6
[15]
  Cis-delivery: fold increase in EC50, EC50 [with PD1bl]/EC50 [no PD1bl]: 0.9 fold
  Delta AUC (PD1+ vs PD1bl.): 3
[19]
  AUC of dose-response binding (frequency of anti-PGLALA+ cells): 396
[20]
  EC50[active]/EC50 [active PD1-IL7wt]: 0.8 fold
  EC50[fresh]/EC50 [fresh PD1-IL7wt]: 0.5 fold
